The results in this text go back to PMC11791976, “CDC20‐Mediated Selective Autophagy Degradation of PBRM1 Affects Immunotherapy for Renal Cell Carcinoma” (Advanced Science, 2024).

The chains behind the UniProt entries cited, without tags or fusion partners. Residues count along the entry.
GST-p62 region 104-221 (Q13501, residues 104-221): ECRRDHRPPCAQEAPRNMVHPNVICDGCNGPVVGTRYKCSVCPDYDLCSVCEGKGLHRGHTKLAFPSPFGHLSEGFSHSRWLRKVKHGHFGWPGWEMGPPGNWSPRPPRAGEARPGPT
UniProt Q9UM11: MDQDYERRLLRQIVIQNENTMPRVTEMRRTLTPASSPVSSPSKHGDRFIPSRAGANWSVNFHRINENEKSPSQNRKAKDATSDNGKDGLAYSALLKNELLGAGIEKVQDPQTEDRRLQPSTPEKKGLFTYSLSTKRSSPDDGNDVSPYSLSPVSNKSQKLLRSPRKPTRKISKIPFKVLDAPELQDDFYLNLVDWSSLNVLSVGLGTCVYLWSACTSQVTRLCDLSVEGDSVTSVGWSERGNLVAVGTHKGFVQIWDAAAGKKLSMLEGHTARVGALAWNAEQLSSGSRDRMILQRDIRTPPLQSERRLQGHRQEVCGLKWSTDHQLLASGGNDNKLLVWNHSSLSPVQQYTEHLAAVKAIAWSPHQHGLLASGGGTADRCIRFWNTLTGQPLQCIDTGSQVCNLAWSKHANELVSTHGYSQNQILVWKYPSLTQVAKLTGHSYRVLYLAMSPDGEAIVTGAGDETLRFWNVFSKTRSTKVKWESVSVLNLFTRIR
UniProt Q12834: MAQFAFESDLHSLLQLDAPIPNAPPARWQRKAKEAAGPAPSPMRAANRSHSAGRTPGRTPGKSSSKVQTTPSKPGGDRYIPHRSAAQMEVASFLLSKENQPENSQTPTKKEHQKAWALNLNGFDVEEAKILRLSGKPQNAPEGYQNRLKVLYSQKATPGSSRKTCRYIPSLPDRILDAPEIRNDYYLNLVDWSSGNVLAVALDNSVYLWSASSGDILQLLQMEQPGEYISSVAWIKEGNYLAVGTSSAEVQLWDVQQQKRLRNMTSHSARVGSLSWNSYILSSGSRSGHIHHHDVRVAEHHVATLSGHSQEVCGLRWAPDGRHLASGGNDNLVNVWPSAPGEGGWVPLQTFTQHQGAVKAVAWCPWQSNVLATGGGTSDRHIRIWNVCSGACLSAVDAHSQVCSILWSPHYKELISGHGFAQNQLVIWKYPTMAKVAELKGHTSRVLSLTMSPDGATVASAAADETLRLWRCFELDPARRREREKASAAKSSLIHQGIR

Results are given in words; binding and its absence hold for the method and conditions named. For part of these data: Binding seen in cells or lysates may run through a third protein. Some binding calls cover weakened binding; strength is not graded here.

One assay addresses HA-p62 (pcDNA3-HA-p62) (UniProt Q13501). In words: co-IP; 293T cells transfected with tagged proteins; Flag or HA antibody on agarose, 4-6 h; IP buffer 50 mM Tris-HCl pH 7.4, 120 mM NaCl, 5 mM EDTA, 0.5% NP-40; in one panel cells treated with PB1-p62 (5 µM) and chloroquine (50 µM) for 24 h.
For assay [1], the target named is Flag-p62 (pcDNA3-Flag-p62) (UniProt Q13501). Described as above.
The next assay deals with GST-p62 (pCMV-GST-p62) (UniProt Q13501). Kind of assay: pull-down; GST pull-down from 293T cells co-transfected with GST-p62 (or its truncated constructs) and V5-PBRM1; panels with serum starvation for 24 h, with HA-CDC20 co-transfected, or in CDC20 knock-down cells.
Another assay deals with GST-p62 region 104-221 (UniProt Q13501). Described as above.
A further assay has as its target GST-PBRM1 (UniProt Q86U86). In words: pull-down; purified GST-PBRM1 (Glutathione Sepharose 4B) and purified HA-CDC20 or HA-CDH1 incubated together at 4 °C for no more than 3 h, washed with IP buffer, western blot; both purified.
Assay [2] deals with Flag-tagged PBRM1 (Polybromo 1), pcDNA3.1-PBRM1-3xFlag (UniProt Q86U86). In words: co-IP; 293T cells transfected with tagged proteins; Flag or HA antibody on agarose, 4-6 h; IP buffer 50 mM Tris-HCl pH 7.4, 120 mM NaCl, 5 mM EDTA, 0.5% NP-40; in one panel cells treated with PB1-p62 (5 µM) and chloroquine (50 µM) for 24 h.
Assay [3] deals with V5-PBRM1 wild type (pcDNA6.2/N-EmGFP-PBRM1-V5) (UniProt Q86U86). The description is as above.
The target in assay [4] is PBRM1 (Polybromo 1), endogenous (human (endogenous in 786-O and 769-P)) (UniProt Q86U86). In words: co-IP; endogenous proteins; anti-CDC20 or anti-PBRM1 immunoprecipitates of 786-O and 769-P lysates; IP buffer 50 mM Tris-HCl pH 7.4, 120 mM NaCl, 5 mM EDTA, 0.5% NP-40.

On to “V5-PBRM1 wild type (pcDNA6.2/N-EmGFP-PBRM1-V5) (from UniProt Q86U86 1-1689)”, for which the binding result (in the assay with HA-p62 (pcDNA3-HA-p62); in assay [1]; with GST-p62 (pCMV-GST-p62); with GST-p62 region 104-221) was “binds” each time.

As to “HA-CDH1 (pcDNA3-HA-CDH1) (from UniProt Q9UM11 1-496)”, in the assay with GST-PBRM1, the binding entry is on record as “no binding”.

In the case of “HA-CDC20 (pcDNA3-HA-CDC20) (from UniProt Q12834 1-499)”, the binding entry (in the assay with GST-PBRM1; in assay [2]; in assay [3]) was “binds” in each case.

For “CDC20 (cell division cycle 20 homologue), endogenous (from UniProt Q12834 1-499)”, the binding entry in assay [4] is listed as “binds”.
